# Reference: the supplement of paper PMC3334620
# The full ranking holds about 33,000 sequences; the median of “E-score (-0.5 to 0.5)” is about -0.017, and the highest 2% start at about 0.3. The list shows a part of the results.
# Target: T1, Sut1 (UniProt P53032)
# T1 sequence: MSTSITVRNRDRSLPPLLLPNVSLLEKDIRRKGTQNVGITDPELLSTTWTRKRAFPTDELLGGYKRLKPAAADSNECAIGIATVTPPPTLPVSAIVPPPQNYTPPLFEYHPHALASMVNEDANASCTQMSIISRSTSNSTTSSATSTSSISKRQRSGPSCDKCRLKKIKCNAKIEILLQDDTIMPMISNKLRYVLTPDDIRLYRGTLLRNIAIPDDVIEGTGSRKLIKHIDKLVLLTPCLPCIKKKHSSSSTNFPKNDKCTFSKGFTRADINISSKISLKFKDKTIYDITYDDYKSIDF
# Test: PBM E-score (8-mer binding enrichment) (E-score (-0.5 to 0.5)); higher = stronger / more preferred TF binding; most listed sequences are background and not binding sites
# Details: protein concentration: 200 nM; construct: GST-full length
# Procedure, shortened: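 Universal all-10-mer Agilent arrays, double-stranded by primer extension on fresh or once-stripped slides, were probed with about 100-200 nM GST-tagged yeast transcription factors made by PURExpress. Fluorescent anti-GST detected bound protein, and masliner normalised the scans. E-scores from the Universal PBM Analysis Suite were given to each ungapped eight-base word pooled with its reverse complement.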
row,Sequence,PBM E-score
1,AACGTAAC,0.105
2,CATCAAGA,0.0927
3,TGAATACA,0.241
4,AGCGACAG,-0.133
5,AGCATGGA,-0.262
6,CAAAATAG,0.0437
7,GAGTGGAA,0.0974
8,AGGGCCAA,-0.327
9,GCTATGAC,-0.0446
10,AGCCAATC,-0.0438
11,ACGTCAGC,-0.226
12,CCGTCACG,-0.0407
13,TCCGAGCA,0.307
14,GAAGGCAA,-0.0791
15,AAGATATG,0.167
16,ACCTAGCA,-0.0328
17,CCAAAGGC,-0.187
18,CGTAGTAA,0.0634
19,ACAGACGA,-0.0205
20,AATGCGAT,-0.0455
21,AATCCAGG,-0.127
22,CACGTGAG,-0.203

row,Sequence,PBM E-score
1,CCGCAAAG,0.0675
2,GCCCGATA,-0.259
3,ACGGTTTC,0.0519
4,ACGTCTCA,-0.0462
5,GCACATAC,-0.243
6,CTGGTCGA,-0.278
7,AATTCGAA,0.116
8,GATAGTTA,0.246
9,CATGGATC,-0.0378
10,AGTATGCC,-0.0524
11,CTAGCTCA,-0.118
12,AGGAGCAA,-0.0128
13,AGAATTCC,0.199
14,AAACATCA,0.0937
15,AGGTAGGG,0.0341
16,AGACGTTA,-0.139
17,GACCTTGA,-0.0154
18,ACACTTGG,-0.0242
19,GGTGCCAA,-0.0457
20,ACTTCGAG,0.059
21,ATCGGCTC,0.014
22,AAGGATGA,-0.0311

row,Sequence,PBM E-score
1,CATGCACG,-0.0529
2,CACTATTC,0.116
3,CTGGACCA,-0.15
4,AAGAGATG,-0.135
5,AAGTTCGG,0.248
6,TGTCAGAA,-0.0161
7,ATGCAACC,0.0784
8,ACGTTGAA,0.0568
9,GCTACAAA,0.121
10,ATCGACCA,-0.193
11,CGAGAATC,0.0357
12,ACACAATC,0.129
13,GGATTAAC,-0.0263
14,CCCGCCTA,-0.00775
15,CGTCTAGC,-0.0314
16,AATAAGAC,0.041
17,AAGCCCGA,0.194
18,ATGATATC,0.0323
19,CGCCGCTC,0.0133
20,CCCCACGC,-0.35
21,ATGAGCCA,0.0415
22,ACCCGCAC,-0.0235

row,Sequence,PBM E-score
1,TGATTGCA,0.0186
2,AGGACTCG,-0.295
3,GACAAATA,0.247
4,CAGGGATC,-0.24
5,AAATCCCG,0.213
6,AGGATTGC,-0.148
7,CAGACGGG,-0.194
8,AACATCAG,0.0774
9,CACAGGGC,-0.188
10,CACGGCAA,0.0279
11,CGTGCCCA,-0.149
12,TACGGAAA,0.278
13,TACCGACA,0.102
14,AAATGGTC,-0.0061
15,CGCATTCC,-0.284
16,AAAGCCAT,0.0644
17,ATCTCAGC,-0.101
18,ACCCTAAC,-0.0232
19,GTGAGTGA,-0.0684
20,GACTACAC,-0.00601
